T1: UNK ZnF1-3 (human, UniProt Q9C0B0 31-174)
T1 sequence: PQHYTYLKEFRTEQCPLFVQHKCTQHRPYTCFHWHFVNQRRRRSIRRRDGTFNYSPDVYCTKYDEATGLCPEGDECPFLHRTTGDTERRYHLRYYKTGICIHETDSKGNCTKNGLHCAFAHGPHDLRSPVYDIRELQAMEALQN

B1: chr1:213174215:213174216:-_ENSG00000174606_ENST00000366962|hu_mus|motif|central (ssRNA)
RNA: GGGAGUUCUACAGUCCGACGAUCUGUUUUUUCUACUUUGGGAACCUGCUGUGCCUCAUAAACACAGUUCUGAGAGAUGCCGGGGUUUGGGGGCCAAAUUGGAAUAGAUAAAAUUCUUUGUCCCCGUGAAGACUGUUCCUGGCCCAACAGAGGAUUGAGCAUCA
B2: chr10:117126822:117126823:-_ENSMUSG00000020184_ENSMUST00000020408|mus_mus|FALSE|FALSE (ssRNA)
RNA: GGGAGUUCUACAGUCCGACGAUCAGGUGCCUUUACUGGCUGAGUCUUCUCUGCAGCCCACAACUCACACAUUUUAGAUUACUACAGUUUCAGAAUUUCAAUAACUUAAAUAUACAAUCCUUCACAUAGUCUUUAACUCUUUACCAACAGAGGAUUGAGCAUCA
B3: chr3:176767854:176767855:-_ENSG00000177565_ENST00000430069|hu_hu|hu_hu_hu_mus_False|58_58 (ssRNA)
RNA: GGGAGUUCUACAGUCCGACGAUCGACAUCCUUGUUACUGGGCACGUCCUGCCCUCCUUCCCGUAUGCAGUGUCUAAGUACUAACUGCGUAGGGCCACUCGUGCUGUUCUCACUGAGGUUCCAGAUUCUUGCCGUGGAGUCUCCCAACAGAGGAUUGAGCAUCA
B4: chr21:30434530:30434531:-_ENSG00000156261_ENST00000286788|hu_mus|FALSE|FALSE (ssRNA)
RNA: GGGAGUUCUACAGUCCGACGAUCAUCAUCUACUGCCCUUUCUAUGUCAUCCAUCAGAUUGUCUGUAGAACCUCGAAGAACUAUAGUAGAAAUGGCACCAUCUUCUUUUUCAUGCUUAAAAACAACCACUUGUGUAUCUCCAACCAACAGAGGAUUGAGCAUCA
B5: chr14:78183846:78183847:+_ENSG00000119705_ENST00000557342|hu_hu|hu_hu_hu_mus_False|1_108 (ssRNA)
RNA: GGGAGUUCUACAGUCCGACGAUCUCUGUCUCAAAAAUCUUCAUCAGAUGUUUGAGCUCCGUGCAAAGCCUUUGCUCUUUGAGCUUGAACGUGGAUCUAUGGGAGGGAAAGCACUGUCAGAAAAGGUAAUUUUUUUUUCCGAAGCAACAGAGGAUUGAGCAUCA
B6: chr12:16048344:16048345:+_ENSG00000023734_ENST00000419869|hu_hu|hu_hu_hu_mus_True|1_98 (ssRNA)
RNA: GGGAGUUCUACAGUCCGACGAUCAGAUCGUCCAUAAGUUAUAACCAAAAUCUCUCCUUCAGGAAUAUACUCCAUGCUGCUAACAGACAUAUUAAAAUUCAGAGAUUUCACUUCUGUCAUUGUGGCAUGAUCCCAGAGUCGAACCAACAGAGGAUUGAGCAUCA
B7: chr2:37230337:37230338:-_ENSMUSG00000075376_ENSMUST00000100143|mus_mus|FALSE|FALSE (ssRNA)
RNA: GGGAGUUCUACAGUCCGACGAUCAAAUAGAAAUAAGUUAAUUAACUCUACUUUCACUAGAUGUAUCAUUGUAGGAUCCUGCUAGUUUAAUAACUGAGUUGUUAAUUUACUGUAGAAGCCAUUUAAAAUAGGAAAUGGCUCAGUCAACAGAGGAUUGAGCAUCA
B8: chr15:63762776:63762777:-_ENSMUSG00000022378_ENSMUST00000164532|mus_mus|FALSE|FALSE (ssRNA)
RNA: GGGAGUUCUACAGUCCGACGAUCAGUUAAUUUAAACAUUUCCAUUUUGGCUGCACAUGAAAAAGCGGCAGUAGAAAAUAAAUUUAUGAGGGUUUUAAAUAGCAGAAUAGGCAGUUUCGCCAUGCAGGAGAAGCAAUAUUAAAUCAACAGAGGAUUGAGCAUCA
B9: 126517571_126517691_1669_CDS_ENSMUSG00000025422_ENSMUST00000039259|mouse|control|control (ssRNA)
RNA: GGGAGUUCUACAGUCCGACGAUCCAUCUUGCGGUCACGAGUGGACGCUCGGCCGCCCUCCCGGCCCCUUUUCAGCCCUGGAGCUGGUGGCUCCAGAGUGAUAGGGGGUGCAGGCCCGAGGGGCUGCGUGGAGGUGGCAGUGACCAACAGAGGAUUGAGCAUCA
B10: chr11:29408400:29408401:+_ENSMUSG00000032740_ENSMUST00000040182|mus_hu|motif|central (ssRNA)
RNA: GGGAGUUCUACAGUCCGACGAUCAGUUAAAGCACAACAGCUUUAUCUUGGGAAUGCCAUUUGCUGAAAAACCAUCUUACGGAAAAAAAGUUUCAGAAAAACACUCUUUACCAUGGGUUAACUUAUGAAUGCUUAGUGUUGCUUCAACAGAGGAUUGAGCAUCA
B11: chr9:136895555:136895556:-_ENSG00000169925_ENST00000303407|hu_hu|FALSE|FALSE (ssRNA)
RNA: GGGAGUUCUACAGUCCGACGAUCGAGUACUUUCUACCAUUUUUAUUCUGUUGUGUUGAGGCCAGCAUUGCAAUAAACAAGCUAAACUACUUACAUUGGACUCAUUUUCAGUAACUGACAUUUACAGGAAUAUACUAGAAACGGCAACAGAGGAUUGAGCAUCA
B12: chrX:35985205:35985206:-_ENSMUSG00000048970_ENSMUST00000058265|mus_hu|FALSE|FALSE (ssRNA)
RNA: GGGAGUUCUACAGUCCGACGAUCAGGAGCUUGUAGGUGAUGAUGCUCAUGGUGGUGCAUUCUAUUUCCAUGACCAAUCCUAAUGUGUCCUAGCAUAGUGAUCAAAGCACAGAAAAUGCUUCCAAGCAUCACACCCUUCAAAAACAACAGAGGAUUGAGCAUCA
B13: 22471608_22471728_1187_CDS_ENSG00000158941_ENST00000389279|human|control|control (ssRNA)
RNA: GGGAGUUCUACAGUCCGACGAUCAUGGAGGGAAAAGGGCUGGCUCAGGGGGAAGGCUGAUAGCCAACUCAGAUGCACGGACAGAAAAUCUGAGGGGACCAGGAGGCUGCGGUAACGGCGCUGGAGUUCUAGGAAGUCACAGAUCAACAGAGGAUUGAGCAUCA
B14: chr7:44244176:44244177:+_ENSG00000106636_ENST00000223369|hu_mus|hu_hu_hu_mus_False|38_38 (ssRNA)
RNA: GGGAGUUCUACAGUCCGACGAUCACUGUCGCUCCGGACGUAGACAUGGCAAAGAUACUCUUGUUCUUUGACAGAAGCUCUGCUGCCUUUCCCCGAGCGCUCCACAAUCAGUUGACUUGUAAAGGUCAUGAAUUCCUGCACACUCAACAGAGGAUUGAGCAUCA

The other results are listed elsewhere or left out.

The target of this test is T1, UNK ZnF1-3. The test is described as follows: nsRBNS (natural sequence RNA bind-n-seq); RBNS binding buffer (assumed for nsRBNS): 25 mM Tris pH 7.5, 150 mM KCl, 3 mM MgCl2, 0.01% Triton X-100, 500 ug/ml BSA, 20 U/ml SUPERase-In, 4 C; UNK is unkempt and MSI1 is Musashi-1; names of the RNAs are library labels; protein concentration not given here; high values mean tight binding.
Consider B1, for which the binding signal came to 1.09 enrichment R.
As for B2, the binding signal was found to be 0.711 enrichment R.
For B3 the value was 0.664 enrichment R.
The value for B4 was 1.47 enrichment R; that for B5 was 1.25 enrichment R; that for B6 was 1.08 enrichment R.
Molecule B7 displayed a binding signal of 0.618 enrichment R.
The molecule B8 came in with a binding signal of 2.91 enrichment R.
For B9 the value was 0.776 enrichment R; for B10, 0.911 enrichment R; for B11, 0.956 enrichment R.
Molecule B12 had a binding signal of 0.548 enrichment R.
B13: the binding signal is 1.74 enrichment R.
As for B14, the binding signal stood at 0.731 enrichment R.

For the origin of these results see article PMC12136788.
